The whole screen tested about 370,000 compounds, of which about 150 (0.041%) were called active. Inconclusive means that the source gave no clear call. Such entries were picked first, then a sample of the others. Calls follow the shape of the dose curve; as a rule, active = well fitted inhibition curve with a large enough effect; inconclusive = small, poorly fitted or top-dose-only effect; inactive = flat fitted curve, though single readings scatter. No potency is given beside an inconclusive call; the fits are too rough.
Biological target: Beta-lactamase (Escherichia coli (strain K12)) (UniProt P00811)
Experiment: qHTS Inhibitors of AmpC Beta-Lactamase (assay with detergent); also: nearly all actives have a fitted effect of over 25% in size
Conditions: AmpC hydrolysis of nitrocefin, absorbance 480 nm, 0.01% Triton; series mostly up to 114 µM
How it was run: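 20 mM phosphate pH 7.0 + 0.01% (detergent screen) or 0.0001% Triton X-100; 5.3 nM AmpC reagent; cpd preinc 15 min RT; nitrocefin (800 uM stock) to start; A480 q20 s × 4 min; Activity was normalised to no-enzyme and no-compound control wells.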
Potency is read from the fitted curve at half-maximal effect; tags tell the direction and shape of the fitted curve.

Chain of UniProt P00811 (P00811 whole entry, looked up): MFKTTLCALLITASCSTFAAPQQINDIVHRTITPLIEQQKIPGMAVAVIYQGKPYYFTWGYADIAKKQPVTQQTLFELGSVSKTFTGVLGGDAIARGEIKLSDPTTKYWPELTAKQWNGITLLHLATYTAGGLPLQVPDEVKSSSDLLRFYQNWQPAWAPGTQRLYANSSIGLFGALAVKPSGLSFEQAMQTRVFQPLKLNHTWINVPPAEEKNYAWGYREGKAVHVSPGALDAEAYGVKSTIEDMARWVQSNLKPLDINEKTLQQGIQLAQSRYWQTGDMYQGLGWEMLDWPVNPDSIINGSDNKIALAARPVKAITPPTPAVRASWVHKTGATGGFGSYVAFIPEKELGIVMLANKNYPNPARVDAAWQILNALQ

Row | SMILES | Potency
1 | O=C(CN1CCC(n2nnc3cc(F)ccc32)CC1)NCCc1nc2ccccc2[nH]1 | inconclusive [inhibitor, full curve, poor fit]
2 | CC(C)Cc1c(O)nc(SCCN2CCOCC2)[nH]c1=O | inconclusive [inhibitor, full curve, poor fit]
3 | COc1ccc2nc(NC(=O)C3CCCN(S(=O)(=O)c4cccc5nonc45)C3)sc2c1 (stereo unspecified) | inactive
4 | CC(=O)Nc1ccc(OC(=O)c2ccc(Cl)cc2)cc1 | inconclusive [inhibitor, single point]
5 | COc1ccc(-n2c(C)c3c(OC)cccc(=O)c3c2C)cc1 | inactive
6 | CC1CC(C)CN(CCCNC(=O)CCC(=O)N2CC(C)Oc3ccccc32)C1 (stereo unspecified) | inconclusive [inhibitor, full curve]
7 | CC(=O)N1CCc2c(sc3c2c(=O)n(-c2ccccc2Cl)c(=O)n3Cc2cccc(C)c2)C1 | inactive
8 | CCc1ccc(OCC(=O)NNC(=O)c2cc(S(=O)(=O)N(C)C)ccc2N2CCCC2)cc1 | inconclusive [inhibitor, full curve, poor fit]
9 | OCCN(Cc1nc(-c2ccc3c(c2)OCO3)no1)Cc1cccs1 | inconclusive [inhibitor, partial curve]
10 | Cc1cc(C)cc(NC(=O)c2ccc3nc[nH]c3c2)c1 | inconclusive [inhibitor, full curve, poor fit]
11 | COC(=O)c1cccc(NC(=O)CSc2nnc(C)n2Cc2ccccc2)c1 | inconclusive [inhibitor, full curve, poor fit]
12 | O=C(CC12CC3CC(CC(C3)C1)C2)Nc1nncs1 | inconclusive [inhibitor, partial curve]
13 | CC(C)[C@H](NC(N)=O)C(=O)Nc1cccc(S(=O)(=O)NC2=NCCCCC2)c1 | inconclusive [inhibitor, partial curve, poor fit]
14 | O=C(O)c1ccc(N2C(=O)CC(SC(=NCc3ccc4c(c3)OCO4)Nc3ccc(F)cc3)C2=O)cc1 (stereo unspecified) | inconclusive [inhibitor, single point]
15 | Cc1ccc(S(=O)(=O)N(C)CCCC(=O)NCc2ccc3c(c2)OCO3)cc1 | inconclusive [inhibitor, partial curve]
16 | C#Cc1ccc([C@H]2C=C(C(=O)O)O[C@@H](OCc3ccc(CO)cc3)C2)cc1 | inactive
17 | CC(C)c1cccc(C(C)C)c1OCCn1ccnc1 | inconclusive [inhibitor, full curve, poor fit]
18 | CCCCCn1c(=O)[nH]c2cc(C(=O)NCCN(CC)CC)ccc2c1=O | inconclusive [inhibitor, single point]
19 | CCOC(=O)c1cc(-c2ccccc2)n(CCC(=O)NCCc2ccccc2)c1C | inactive
20 | Cc1ccc(C(=O)N/C(=C/C=C\c2ccccc2)C(=O)NCc2ccco2)cc1 | inconclusive [inhibitor, partial curve]
21 | Cc1cccc(-c2noc(CN(C(=O)/C=C/c3ccccc3Cl)C(C)C)n2)c1 | inconclusive [inhibitor, partial curve]
22 | COc1ccc(C)cc1NC(=O)c1nnn(Cc2cccc(Br)c2)c1N | inconclusive [inhibitor, single point]
23 | CCn1cnc2c(Nc3cc(F)cc(F)c3)nc(C#N)nc21 | inactive
24 | COc1ccccc1CNC(=O)C(NS(=O)(=O)c1ccc2c(c1)CCN2C(C)=O)C(C)C (stereo unspecified) | inactive

Row | SMILES | Potency
25 | CSc1nc2ccccc2s1 | inconclusive [inhibitor, full curve, poor fit]
26 | COc1ccc(CNC(=O)c2cnc(N3CCCC3)nc2C)c(OC)c1 | inactive
27 | O=C(CNC(=O)c1ccco1)N/N=C/c1ccc(O)c([N+](=O)[O-])c1 | inconclusive [inhibitor, full curve, poor fit]
28 | CC(=O)Nc1cccc(C(=O)OC(C(=O)c2ccc(C)cc2)c2ccccc2)c1 (stereo unspecified) | inconclusive [inhibitor, full curve, poor fit]
29 | CCOc1cc(-c2cc(N)n[nH]2)cc(OCC)c1OCC | inactive
30 | COc1ccc(Cc2nnc(SCC(=O)NCCc3ccccc3)o2)cc1 | inconclusive [inhibitor, single point]
31 | COc1cccc(/C=C2/C(=O)NN(c3ccc(F)cc3)C2=O)c1 | inactive
32 | Cc1nn(C)c2c1c(-c1ccccc1)cc(=O)n2Cc1ccc(F)cc1 | inactive
33 | S=C(NCCc1ccccc1)NCc1cccs1 | inactive
34 | Cc1ccccc1OCC(=O)Nc1ccc2c(c1)OCO2 | inactive
35 | CC(=O)Nc1ccc(/C=C/c2ccc3cccc([N+](=O)[O-])c3n2)cc1 | inactive
36 | CC(CCc1ccccc1)NC(=O)COC(=O)c1ccc([N+](=O)[O-])cc1 (stereo unspecified) | inconclusive [inhibitor, full curve, poor fit]
37 | CCCCOc1ccc(S(=O)(=O)N2CCN(c3ccc(N4CCN(CC)CC4)nn3)CC2)cc1 | inactive
38 | CN1/C(=C\C(=O)C(F)F)C(C)(C)c2ccccc21 | inconclusive [inhibitor, full curve]
39 | CCOc1ccc(CNC(=O)C2CCN(c3nc4ccccc4nc3C(F)(F)F)CC2)cc1OC | inactive
40 | CC(=O)Nc1ccc(S(=O)(=O)NCCC(=O)NNC(=O)c2ccncc2)cc1 | inconclusive [inhibitor, partial curve, poor fit]
41 | Oc1ccccc1CN1CCN(C(O)(c2ccccc2)c2ccccc2)CC1 | inactive
42 | COc1ccc(C)c(Cn2c(-c3nonc3N)nc3ccccc32)c1 | inconclusive [inhibitor, partial curve]
43 | Cn1cc(C(=O)c2cccc(Cl)c2)cc1/C=N\O | inactive
44 | CCOC(=O)c1cccc(NC(=O)CSc2nnc(C3CCCCC3)n2CC)c1 | inconclusive [inhibitor, full curve, poor fit]
45 | O=S(=O)(/N=C(/Nc1ccccn1)c1ccccc1)c1ccccc1 | inconclusive [inhibitor, partial curve, poor fit]
46 | CC(C)CC(=O)Nc1ccc2oc(-c3cccnc3)nc2c1 | inconclusive [inhibitor, full curve, poor fit]
47 | COc1ccc(C2NC(=S)NC(C)=C2C(=O)Nc2ccccn2)cc1 (stereo unspecified) | inconclusive [inhibitor, single point]
48 | CCOC(=O)N1CCC(NC(=O)c2ccc(N3CCC4(CC3)OCCO4)c([N+](=O)[O-])c2)CC1 | inactive

Row | SMILES | Potency
49 | Cc1cc(C(=O)NCc2ccc(S(N)(=O)=O)cc2)cs1 | inconclusive [inhibitor, full curve, poor fit]
50 | CCN(c1nc(C)cc(OC)n1)S(=O)(=O)c1ccccc1 | inconclusive [inhibitor, single point]
51 | C=CCn1c(=N)n(CC(=O)c2ccc(Br)cc2)c2ccccc21 | inconclusive [inhibitor, partial curve, poor fit]
52 | O=C(c1ccc(S(=O)(=O)N2CCc3ccccc3C2)cc1)N1CCCCC1 | inconclusive [inhibitor, single point]
53 | O=C(OCc1cccc(C(F)(F)F)c1)c1cc(S(=O)(=O)N2CCOCC2)ccc1F | inconclusive [inhibitor, full curve]
54 | COc1ccc(OC)c(NC(=O)CSc2nc(=O)n(CCN3CCOCC3)c3c2CCC3)c1 | inconclusive [inhibitor, partial curve, poor fit]
55 | CCN(CC)S(=O)(=O)c1ccc(S(=O)(=O)N2CCCC2C(=O)O)cc1 (stereo unspecified) | inconclusive [inhibitor, single point]
56 | Cc1cc(C)c(C)c(OCC(=O)N2CCN(c3ccccn3)CC2)c1 | inactive
57 | CN(CC(=O)Nc1ccc(Cl)cc1F)C1CCS(=O)(=O)C1 (stereo unspecified) | inactive
58 | CON(C)C(=O)Nc1ccc(Cl)cc1 | inactive
59 | CCC(CC)C(=O)Oc1c(Sc2ccccc2[N+](=O)[O-])c(C)nn1C(C)(C)C | inconclusive [inhibitor, full curve, poor fit]
60 | Cc1c(N=NC2=C(O)CC(C)(C)CC2=O)cc2c(c1[N+](=O)[O-])C(C)(C)CC2(C)C | inconclusive [inhibitor, full curve]
61 | O=S(=O)(c1ccc(Br)cc1)c1nc(-c2ccccc2)oc1NCCN1CCOCC1 | inactive
62 | CCOc1ccc(Nc2sc(C(=O)c3ccc4c(c3)OCO4)c(N)c2S(=O)(=O)c2ccc(C)cc2)cc1 | inactive
63 | CCOC(=O)c1c(NC(C)=O)sc2c1CCN(Cc1ccccc1)C2 | inactive
64 | Oc1ccc(N=Nc2ccc(Br)cc2)c(O)c1 | inactive
65 | CCCN(CC(=O)Nc1ccc(Cl)cc1Cl)C(=O)/C=C/c1cccc([N+](=O)[O-])c1 | inconclusive [inhibitor, partial curve]
66 | COc1cccc2c1cc1c(=O)n(CC(=O)O)nc(C)n12 | inactive
67 | Cc1[nH]c2ccccc2c1N=Nc1ccccc1F | inactive
68 | COc1ccc(OCc2cc(C(=O)NC(C)Cc3cnccn3)no2)c(Cl)c1 (stereo unspecified) | inconclusive [inhibitor, partial curve]
69 | CCOc1ccc(-c2c(C)nn3c(C)c(C(=O)NCCc4ccccc4)cnc23)cc1OCC | inactive
70 | COc1ccc2c(c1)c1c(c(=O)n(-c3ccc(F)c(Cl)c3)c(=O)n1CC(N)=O)n2C | inactive
71 | COc1ccc(CCNC(=O)CCCNC(=O)Cn2cnc3sc(C)c(C)c3c2=O)cc1OC | inconclusive [inhibitor, partial curve]
